Experimental data taken from PubChem BioAssay AID2094 (Broad Institute, 2009).
Hit rate of the full screen: of about 300,000 compounds, about 1,200 (0.4%) were called active. The inconclusive results got no clear call from the source; some entries with a clear call stand among them for comparison. Rule as the data show it: active = activity change below about -75% (passing the limit was not always enough); inconclusive = no clear call, values can overlap the other calls.

Experiment: Vibrio harveyi AI-2 quorum sensing modulators, primary screen, JMH597 strain, luminescence/OD600 ratio (AID 2094);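 also: luminescence divided by OD600 gain over 9 h not by final OD600 alone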
Conditions: Vibrio harveyi JMH597 AI-2 luminescence/OD600 ratio, 9 h; at 7.5 µM; active compounds read low; 0 = neutral-control median; strain lacks LuxN and CqsS sensors
For `CC1(c2ccc(OC(F)F)cc2)NC(=O)N(CC(=O)Nc2ccc(N3CCCCC3)cc2)C1=O` (centres undefined), the activity change was inconclusive: -39.6%. For `O=S(=O)(c1ccc2ccccc2c1)N1CCN(C(=S)Nc2ccc(F)cc2)CC1`, the activity change was inconclusive: -75.5%. With `N#CCc1nc(CSc2nc3ccccc3o2)cs1` the activity change was inconclusive: -72.2%. For `Cc1nc(Nc2ccc(S(N)(=O)=O)cc2)oc1C`, the activity change was inconclusive: -73.7%. With `COc1cccc2c1OCC(C(=O)NCc1ccc(Cl)cc1Cl)=C2` the activity change was inconclusive: -66.8%. For `COc1nnc(-c2ccc(C(=O)N3C[C@@H]4C[C@H](C3)c3cccc(=O)n3C4)cc2)c2ccccc12`, the activity change was inconclusive: -63.2%. With `Cc1ccc(S/C=C\C(=O)c2ccccc2)cc1` the activity change was inconclusive: -69.3%. In the case of `CCOC(=O)c1cnc(SCc2nc(N)nc(Nc3ccccc3)n2)nc1N`, the activity change was inconclusive: -511%. For `O=C(O/N=C\c1ccc(N2CCOCC2)c([N+](=O)[O-])c1)c1ccccc1Cl`, the activity change was inconclusive: -73.4%. With `CCc1nnc(NC(=O)CSc2ccc(-c3ccc(F)cc3)nn2)s1` the activity change was active: -93.1%. With `COc1ccc(CC(=O)Nc2ccc(S(=O)(=O)Nc3nccs3)cc2)cc1` the activity change was inconclusive: -78.2%. In the case of `CCCC1(c2ccccc2)NC(=O)N(CC(=O)Nc2cc(OC)cc(OC)c2)C1=O` (centres undefined), the activity change was active: -80.6%. With `NC(=O)CSc1nc2sc3c(c2c2ncnn12)CCCC3` the activity change was inconclusive: -366%. For `Cn1ccsc1=NC(=O)c1ccc([N+](=O)[O-])o1`, the activity change was active: -86%. With `CC1(C)Oc2ccc3ccc(=O)oc3c2-c2cn[nH]c21` the activity change was inactive: 25%. In the case of `Cn1c(C(=O)NCCc2c[nH]c3ccccc23)cc2sccc21`, the activity change was inconclusive: -79%. For `C/C(=C\c1ccccc1)C(=O)Nc1ccc(S(=O)(=O)Nc2ncccn2)cc1`, the activity change was inconclusive: -72%. With `Cc1onc(C(=O)N2CCN(Cc3ccccc3)CC2)c1[N+](=O)[O-]` the activity change was inconclusive: -45.2%. For `Cc1ccc(NC(=O)CCc2ccc(C)o2)cc1`, the activity change was inconclusive: -70.1%. With `COc1cccc(OCc2nc(-c3ccc(Br)o3)no2)c1` the activity change was active: -82.6%. With `O=C(/C=C/c1ccc2c(c1)OCO2)NCc1ccc(F)cc1` the activity change was active: -82.8%. With `CC(Oc1ccccc1)C(=O)Nc1ccc(S(=O)(=O)NCC2CCCO2)cc1` (centres undefined) the activity change was inconclusive: -61.2%. For `CN(C)c1ccc(NC2=C(Cl)C(=O)c3ccccc3C2=O)cc1`, the activity change was inconclusive: -73%. In the case of `O=C(Nc1nc(-c2ccccn2)cs1)c1ccc([N+](=O)[O-])o1`, the activity change was inconclusive: -85.4%. With `Cc1ccnc(NS(=O)(=O)c2ccc(NC(=O)Cc3ccc(Br)cc3)cc2)n1` the activity change was inconclusive: -73.9%. With `Cc1cc(Nc2ccc(Cl)cc2)nc(NCc2ccccc2)n1` the activity change was inconclusive: -73.9%. In the case of `CCOc1cccc2c1OC1(C)CC2NC(=O)N1c1cccc(C(=O)NCc2ccccn2)c1` (centres undefined), the activity change was active: -95.3%. For `Cc1ccccc1CNCc1cccnc1`, the activity change was inconclusive: -412%. With `CC(NC(=O)c1cc(COc2cccc(C(F)(F)F)c2)on1)c1nccs1` (centres undefined) the activity change was inconclusive: -75.5%. For `CSc1nc(Cl)cc(Nc2ccc(O)cc2)n1`, the activity change was inactive: 4.56%. In the case of `Cc1ccc(C(=O)NCCOc2ccc(Cl)cc2)cc1`, the activity change was inconclusive: -59.5%. For `Oc1ccccc1C(Nc1nccs1)c1ccc2cccnc2c1O` (centres undefined), the activity change was inconclusive: -72%. In the case of `COc1ccc(-c2nn(-c3ccccc3)cc2/C=N/NC(=O)c2cccc(S(=O)(=O)Nc3ccccc3Cl)c2)cc1`, the activity change was inactive: 19.9%. In the case of `COc1ccc(C(=O)NNC(=S)NC(=O)/C=C/c2cccs2)cc1`, the activity change was inconclusive: -7.22%. For `O=C(NCC(c1cccnc1)N1CCN(c2ccc(F)cc2)CC1)OCc1ccccc1` (centres undefined), the activity change was inconclusive: -342%. With `CCCCCCCCCC(=O)Nn1cnc2ccccc2c1=O` the activity change was inconclusive: -77.1%. With `CCN(CC)C(=O)CSc1nc(-c2cccs2)cc(-c2cccs2)c1C#N` the activity change was inactive: 34.4%. For `CC(C)(C)c1ccc2c(c1)OC(C(=O)N/N=C/c1ccc([N+](=O)[O-])o1)CO2` (centres undefined), the activity change was inconclusive: -116%. For `CCOC(=O)NNc1ccc2nonc2c1[N+](=O)[O-]`, the activity change was active: -91.9%. In the case of `CCN(CC)C(=O)C1CCN(S(=O)(=O)c2ccc3c(c2)CCCN3C(=O)C2CCC2)CC1`, the activity change was inactive: 8.46%. With `c1ccc(OCc2nc(-c3cccs3)no2)cc1` the activity change was active: -83.6%. For `C=CS(=O)(=O)c1ccc(Oc2ccc(S(=O)(=O)C=C)cc2)cc1`, the activity change was inconclusive: -77.6%. In the case of `Cc1cccc(NS(=O)(=O)c2ccc(C3CCCCC3)cc2)n1`, the activity change was inconclusive: -78.8%. In the case of `Cc1nn(-c2ccccc2)c(N)c1N=Nc1ccccc1`, the activity change was inconclusive: -73.1%. For `C[C@]12CC[C@@H]3c4cc(O)c(O)cc4CC[C@H]3[C@@H]1CC[C@@H]2O`, the activity change was inactive: 22.6%. In the case of `Cc1ccccc1NC(=O)c1ccc([N+](=O)[O-])o1`, the activity change was inconclusive: -13%. For `Cc1ccc(C)c(NC(=O)CCCCCN2C(=O)[C@@H]3Cc4ccccc4CN3C2=O)c1`, the activity change was inconclusive: -122%. With `O=C(/C=C/c1ccccc1Cl)NCc1ccco1` the activity change was active: -83.1%. In the case of `c1ccc(-c2cnc(CSc3ncnc4sccc34)o2)cc1`, the activity change was inconclusive: -71.8%. In the case of `Cc1nc(N)nc(N)c1/C=C/C(C)(C)c1ccc(Cl)cc1`, the activity change was active: -89.1%. With `COc1ccc(-c2nnc(NC(=O)c3ccc(F)cc3)o2)cc1` the activity change was inconclusive: -81%. In the case of `CNC(=S)Nc1ccc(Nc2ccccc2)cc1`, the activity change was inconclusive: -71.7%. For `OC(COc1ccccc1)CSc1ncn[nH]1` (centres undefined), the activity change was inactive: 6.58%. With `O=S(=O)(c1ccc(Br)s1)n1cccn1` the activity change was active: -91.5%. With `COc1ccccc1NC(=O)/C(=C/c1ccncc1)NC(=O)c1ccccc1` the activity change was inactive: 11.7%. In the case of `Cc1cccc(NC(=O)c2ccc([N+](=O)[O-])o2)c1`, the activity change was inconclusive: -80.4%. With `CC1=C(O)C(=O)OC1c1c(Cl)cccc1Cl` (centres undefined) the activity change was inactive: 29.8%. For `CC[n+]1c(/C=C/Nc2ccccc2)oc2ccc(OC)cc21`, the activity change was inactive: 12.3%. For `CCCOc1ccc(N2C(=O)CC(SCCN)C2=O)cc1` (centres undefined), the activity change was active: -87.4%.
